Source: paper PMC12136788
The list shows a part of the results.

T1: UNK ZnF1-6 (called full-length) (human, UniProt Q9C0B0 30-357)
T1 sequence: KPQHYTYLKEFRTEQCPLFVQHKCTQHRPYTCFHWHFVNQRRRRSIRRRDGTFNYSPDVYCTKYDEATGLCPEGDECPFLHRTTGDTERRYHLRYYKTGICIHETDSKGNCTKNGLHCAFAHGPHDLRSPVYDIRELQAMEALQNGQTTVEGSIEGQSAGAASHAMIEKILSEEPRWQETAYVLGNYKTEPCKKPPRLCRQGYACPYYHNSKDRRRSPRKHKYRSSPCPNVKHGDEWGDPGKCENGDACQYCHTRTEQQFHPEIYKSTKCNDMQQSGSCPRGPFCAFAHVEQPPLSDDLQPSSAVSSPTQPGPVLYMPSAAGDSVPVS

B1: chr8:8785477:8785578:-|3pUTR|ENSG00000147324|msi1|total|mutant (ssRNA)
RNA: GGGAGUUCUACAGUCCGACGAUCUGUUUAUCUUUAUUUUUAUAAUAUGCAAAUACAUUUAAAUUUAUACAGUUUGAAGCUUCCCGCGUCCGUUCACACUGGGUGCAAUAUUCUGCAUGAGAACUGUGCCAAGAUGGGGCUGAUCAACAGAGGAUUGAGCAUCA
B2: chr7:101206146:101206247:-|3pUTR|ENSG00000106397|msi1|FALSE|unique (ssRNA)
RNA: GGGAGUUCUACAGUCCGACGAUCCUUUGUCGACCCCUGACACUCAACCACUCUGCCAAACCUGCCCUGCCAUUGUGCCUUUUUAGGGGGCCUGGCCCCCGUCCUGGGAGUUGGGGGAUGGGUCUCUCUGUCUCCCCACUUCCUCAACAGAGGAUUGAGCAUCA
B3: chr14:21351797:21351898:-|3pUTR|ENSG00000092201|msi1|FALSE|unique (ssRNA)
RNA: GGGAGUUCUACAGUCCGACGAUCGAGGAAGGCUCAAAGGAGUCAACAUUUAUAUCUGGAAGGGACAAGUCAUGCCUUGGGCCUAGAAUACCCUGAUGAGAAAAGAGAAGAGGAAGGGAGGCCAUAUCUACAACACAGCCUCUCCAACAGAGGAUUGAGCAUCA
B4: chr6:13639604:13639705:-|CDS|ENSG00000010017|unk|total|mutant (ssRNA)
RNA: GGGAGUUCUACAGUCCGACGAUCGACCGUGAAGUACGAUGUUUGGGAGGCCGAAGUCCAAAGUCUCAAGACAGUUAUCCUGUCCGUCCUCGACCUUUCCGCCGUCCAAGUAUGAGCCCCAGCCAUGGAAUGAAUAUCCACAAUCAACAGAGGAUUGAGCAUCA
B5: chrX:101163201:101163302:+|3pUTR|ENSG00000102384|unk|FALSE|unique (ssRNA)
RNA: GGGAGUUCUACAGUCCGACGAUCUCAUCAUCAGGCUCUGCGUUCUACCAAAUUGUAUGUAAAAAGACACAUCUGUUUUGUGGUAGGAUUUUUUCACAUUUUUGGGUACUAUGAGCUGCAUUGAUGGAAGACAGCAGGCAAUAUCAACAGAGGAUUGAGCAUCA
B6: chr10:127452233:127452334:+|3pUTR|ENSG00000150760|msi1|total|mutant (ssRNA)
RNA: GGGAGUUCUACAGUCCGACGAUCGUAUAUAUGAUGGUUCUCCGAACUUGUUUUAAUUUUUGUGGUCCUUCCGUUUAUUAUAACCGGCGUCCACCAAUGAUUAUCCAUAUGUGUUCUUAAUUUUUAACUGCUGGAAGUGUUAAACAACAGAGGAUUGAGCAUCA
B7: chr2:61188134:61188237:-|CDS|ENSG00000115464|unk|FALSE|unique (ssRNA)
RNA: GGGAGUUCUACAGUCCGACGAUCAUCUCUCAGUUGUGGCCAUUCCAGAGGACUCUUUAGUCAUAUGCAGCAACAUGACAUUUUAGAUACCCUGUGUAGGACCAUUGAAUCUACAAUCCAUGUCGUCACAAGGAUAUCUGGCAACAACAGAGGAUUGAGCAUCA
B8: chr1:183143318:183143419:+|3pUTR|ENSG00000135862|msi1|total|mutant (ssRNA)
RNA: GGGAGUUCUACAGUCCGACGAUCACAUCCUGUGCCAAAGGUAUUGGUCAUUCCGAAUGUCGGCCGCCAUCCAUCAGUGCUUUCCGUUAUUAUGAGUGCCGGACACUGAGCCAUCCGUGGGUCAGGAUGCAAUUAUUUAUAAAACAACAGAGGAUUGAGCAUCA
B9: ENSG00000141012:stop:overlap|stop_codon|ENSG00000141012|stop_codon|NA|stop_codon (ssRNA)
RNA: GGGAGUUCUACAGUCCGACGAUCAGUUAGGGAAGUGUCUGACACCUCCAGAAUCCAUUCCCAAGAAGUGCCUCUGGUCCCACUAGCACCUGCGCAGACUCAGGCCAGGCCUAGAAUCUCCGGUUGGCCCUGCAAGUGCCUGGACAACAGAGGAUUGAGCAUCA
B10: ENSG00000099250:stop:overlap|stop_codon|ENSG00000099250|stop_codon|NA|stop_codon (ssRNA)
RNA: GGGAGUUCUACAGUCCGACGAUCCAAUUCACGGAGAAAUGUGGUCAUCUGGAAAAGGAGUCUGCUCCCUGGAUGCGAAUCUGUAGCCUGGAUUCUGGAAGGCGAUGCUGAUUUAGGAGGUGGAGUGAAUGGAGAAUUGAAAAGCAACAGAGGAUUGAGCAUCA
B11: chr6:73594753:73594854:-|3pUTR|ENSG00000119899|unk|FALSE|unique (ssRNA)
RNA: GGGAGUUCUACAGUCCGACGAUCGGUUCACAUACCUGCCUGCUAGUCGGGCAACAUGAAGUAGGACAGUUCUGUUGAUUUUUUAGGGCCAUACUAAAGGGAAUGAGCUGAAACAGACCUCCUGAUACCUUUGCUUAAUUAAACCAACAGAGGAUUGAGCAUCA
B12: chr17:81921741:81921842:-|3pUTR|ENSG00000197063|msi1|total|mutant (ssRNA)
RNA: GGGAGUUCUACAGUCCGACGAUCAAUUAUAUGUUUAAAAGUUAAAGAAAAAAGAGCUGCAGAGUAUUUAUAAAACUGUCUUUCCGAAAAAAAACAAGCAAGAAGACCAUUUGACCAUAUGAAUGGAAAAGGGAAGAAAGUAUACAACAGAGGAUUGAGCAUCA
B13: chr2:47509289:47520906:-|three_prime_utr|ENSG00000184261|control|control|control (ssRNA)
RNA: GGGAGUUCUACAGUCCGACGAUCCGGCAACCCCAAAGCAUAUGGUGCAACUUUUCGUGGCUCUGAAUUACCUCCUCAGCAUUUAGAAUCCUGGCCCAGCCUAGCAGCUUCCUUCUGGUCGUCAGAAGUGAUAUAGUCACAGUUCAACAGAGGAUUGAGCAUCA
B14: chr9:93565116:93565217:+|3pUTR|ENSG00000048828|unk|FALSE|unique (ssRNA)
RNA: GGGAGUUCUACAGUCCGACGAUCAUAUACAAUACAUCAUACAUACUUUACAAGCAAGUUAAAUGGAGAUAAAGUUGAAAUCAUAGAAGAUGCAAAUGACCUUUCAAAAUCAACACAAUGUGUUCUGAAACUUUCGUGACUAAUCAACAGAGGAUUGAGCAUCA

Target: T1, UNK ZnF1-6 (called full-length)
Experiment: nsRBNS (natural sequence RNA bind-n-seq); RBNS binding buffer (assumed for nsRBNS): 25 mM Tris pH 7.5, 150 mM KCl, 3 mM MgCl2, 0.01% Triton X-100, 500 ug/ml BSA, 20 U/ml SUPERase-In, 4 C; UNK is unkempt and MSI1 is Musashi-1; names of the RNAs are library labels; protein concentration not given here; high values mean tight binding

Binder | binding signal [enrichment R]
B1 | 0.721
B2 | 0.84
B3 | 1.55
B4 | 0.498
B5 | 0.362
B6 | 0.787
B7 | 0.555
B8 | 0.549
B9 | 0.473
B10 | 0.76
B11 | 0.656
B12 | 0.865
B13 | 1.1
B14 | 0.404
